± gives the standard deviation of the averaged measurements. This is one part of the list.

The subject of the assay is PfAP2-EXP AP2 domain (GST-tagged). Nature of the assay: gcPBM binding intensity (ln(normalized median fluorescence intensity)); higher = stronger DNA binding. The method in brief: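 In this array assay, P. falciparum DNA-binding domains with a GST tag, expressed in E. coli, were applied for 1 h to primer-extended double-stranded 36-bp intergenic genomic probes and negative controls on an Agilent 4 × 180k array. Bound protein was visualised with Alexa488 anti-GST antibody at 488 nm. Binding intensity is the highest Masliner-normalised natural-log median intensity across replicate spots of either probe orientation.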
For the sequence “TATATTAATATGAAAAGTACACATTCTATATATATA [XGTACX_site929]”, the “gcPBM binding intensity (ln)” value was 8.99 ± 0.18.

Turning to “AAAATAATCACATATTGTACAAAAAAATTTATTAAA [XGTACX_site3239]”, the “gcPBM binding intensity (ln)” value stood at 8.44 ± 0.48.

“TTTAATTATAAAACGTGTACATAATTATAATTACAT [XGTACX_site2206]”: the “gcPBM binding intensity (ln)” value stood at 8.52 ± 0.31.

For “AAAAAAAAAAAAAAATGTACCCATATATAAATATAT [XGTACX_site4061]”, the “gcPBM binding intensity (ln)” value is 8.28 ± 0.14.

With “AAAAAATGGATGATCACACACTTCATAAAAATTGCA [CACACA_site5256]”, the “gcPBM binding intensity (ln)” value is 8.46 ± 0.49.

As to “ATTATGTACAAAATGGTGCAATATTATACATATATA [GTGCAC_site9468]”, the “gcPBM binding intensity (ln)” value amounted to 8.75 ± 0.042.

For the sequence “AAAAATAGTATAAGTAGTACAACTGAAAAGTTATGT [XGTACX_site7488]”, the “gcPBM binding intensity (ln)” value was 8.85 ± 0.27.

On to “ATCATTTGCTCACGCACACACACATAAAAAGAAAAA [CACACA_site4349]”, for which the “gcPBM binding intensity (ln)” value is 8.69 ± 0.42.

Take “ATAAAACGAAGATGTTGTACGTACAAATAAATGAAT [XGTACX_site2472]”: the “gcPBM binding intensity (ln)” value amounted to 9.35 ± 0.41.

“ATAACTTTTTAAAAGACACACATAAGAAAAACAAAA [CACACA_site723]”: the “gcPBM binding intensity (ln)” value amounted to 8.94 ± 0.47.

On to “TATCTTATAAACTCTGCACACATAATATATTAAATG [CACACA_site8587]”, for which the “gcPBM binding intensity (ln)” value was determined as 8.61 ± 0.33.

Turning to “TATACGCAGAAACACACACACATACACCCACATACA [CACACA_site1723]”, the “gcPBM binding intensity (ln)” value is 8.65 ± 0.54.

Consider “CAAAAGTAAGCACGCACACACAACATGAAATAAACT [CACACA_site6223]”, for which the “gcPBM binding intensity (ln)” value is 8.9 ± 0.53.

As to TTAATTAATTTTTCAGTGCAAATAAAAAATATTTAA, the “gcPBM binding intensity (ln)” value turned out to be 8.2 ± 0.33.

For “AAAAATTTTAATTAGGAACACACATATATATATATA [CACACA_site9016]”, the “gcPBM binding intensity (ln)” value was 10.1 ± 0.27.

For the sequence “AACGTTCATAATTATTGTACCCTCATTTTATTTTTT [XGTACX_site503]”, the “gcPBM binding intensity (ln)” value was found to be 8.85 ± 0.71.

Consider “TATATTAGAAAGGATACACACATATATATATATCTA [CACACA_site570]”, for which the “gcPBM binding intensity (ln)” value came to 8.29 ± 0.38.

Consider “ATATATATGTATGTATGTACACACAAAAAATGGAAT [XGTACX_site7879]”, for which the “gcPBM binding intensity (ln)” value was 9.16 ± 0.38.

As to “ATATGCTATTATATATGTACACACCAATTTATTTAT [XGTACX_site8364]”, the “gcPBM binding intensity (ln)” value is 8.96 ± 0.38.

Turning to “AAAAAAAAAAAAAAAACACACATTTTAAGAAAAAAA [CACACA_site2926]”, the “gcPBM binding intensity (ln)” value amounted to 8.525 ± 0.049.

In the case of “TACAAAATAAATGGAACATGCAAAAAAATTGATTAA [TGCATGCA_site790]”, the “gcPBM binding intensity (ln)” value stood at 8.95 ± 0.37.

Turning to “ATTATATTCTTTACTACCAATTAGTAGAAAATAAAA [CACACA_negctrl_site1096]”, the “gcPBM binding intensity (ln)” value stood at 8.3 ± 0.49.

Regarding “ATATATATATGTTTGTGTACTTATGATATCATATAA [XGTACX_site3276]”, the “gcPBM binding intensity (ln)” value was 9.66 ± 0.099.

Regarding “TTTTAAAAAATATAATAATATAAATATGTTTTATAC [CACACA_negctrl_site643]”, the “gcPBM binding intensity (ln)” value came out at 8.08 ± 0.28.

“TAAATAAATAAAAATAGTACATAATTATTATTATTA [XGTACX_site4981]”: the “gcPBM binding intensity (ln)” value worked out at 8.19 ± 0.26.

With “AATATATATATATATATTTTTGTTAGAATATGGAAT [GTGCAC_negctrl_site434]”, the “gcPBM binding intensity (ln)” value worked out at 8.4 ± 0.36.

With “TTAAAATAGCTAGTTTGTACATAAAATATATTACTT [XGTACX_site202]”, the “gcPBM binding intensity (ln)” value was 8.43 ± 0.45.

In the case of “CTTAATAAGAATAAATGTACAAGGGATAAAAAATTT [XGTACX_site3213]”, the “gcPBM binding intensity (ln)” value came to 8.74 ± 0.49.

“ATAGAATATTAATAATTAAAAATAAAATAAAATAAA [CACACA_negctrl_site1810]”: the “gcPBM binding intensity (ln)” value came out at 8.49 ± 0.35.

For the sequence “TATTTAATTATTTGTAGTACGATTAATATTTAATGA [XGTACX_site3553]”, the “gcPBM binding intensity (ln)” value stood at 8.19 ± 0.35.

As to “AAAAAGAAAAATTGCACACACTTATAAAAATATACG [CACACA_site6074]”, the “gcPBM binding intensity (ln)” value came out at 8.57 ± 0.3.

“TTTTACAATGAAATATGTACTTAAATGTCCAAATTC [XGTACX_site781]”: the “gcPBM binding intensity (ln)” value turned out to be 8.17 ± 0.31.

With “TATATAAGAATATATACACACATATATGTATATATA [CACACA_site2178]”, the “gcPBM binding intensity (ln)” value worked out at 8.16 ± 0.4.

For the sequence “TTAACCATTAATTCTCTACACACTTTTATTTTATTT [CACACA_site8522]”, the “gcPBM binding intensity (ln)” value came out at 8.66 ± 0.54.

Take “GTTAACAAATAATGCACACAAATGGATAAAATTATA [CACACA_site3725]”: the “gcPBM binding intensity (ln)” value turned out to be 8.77 ± 0.27.

In the case of “AAGAACAAATATGAGGTGCAACACAATATATTATTA [GTGCAC_site9965]”, the “gcPBM binding intensity (ln)” value is 8.76 ± 0.26.

For the sequence “AATATAATTTTTTATTGTACAAAAAAATTATTTAAT [XGTACX_site3248]”, the “gcPBM binding intensity (ln)” value was 8.47 ± 0.53.

For “TATTATTAATATGTATGGTTGTAATCTGTGTCTCCT [TGCATGCA_negctrl_site190]”, the “gcPBM binding intensity (ln)” value was 8.77 ± 0.3.

Take “CATTTTGTAAGATATGCACACATGGATCATATTTTA [CACACA_site423]”: the “gcPBM binding intensity (ln)” value worked out at 8.38 ± 0.28.

Turning to “TTTTTTTTTATCAAATGTACATATATATAATAATAA [XGTACX_site3941]”, the “gcPBM binding intensity (ln)” value is 8.3 ± 0.4.

Consider “AATAAGTATACACATACACACACACCCAAAAAAAAA [CACACA_site8034]”, for which the “gcPBM binding intensity (ln)” value is 8.62 ± 0.6.

On to “GTGTAAATATAATTAGTTTCACAAAACAAATATTTA [CACACA_negctrl_site717]”, for which the “gcPBM binding intensity (ln)” value is 8.12 ± 0.4.

Regarding “ATGGGTATTAAGTGTACACATATAGTGTATTTTGTT [CACACA_site4452]”, the “gcPBM binding intensity (ln)” value is 8.61 ± 0.29.

In the case of “AGGCACAAAATTAAATGTACATATATATATATATAT [XGTACX_site3323]”, the “gcPBM binding intensity (ln)” value stood at 10.1 ± 0.48.

These data come from the supplement of paper PMC11417369.
